{"source": "patent US9290476B2", "about": "“Methylene linked quinolinyl modulators of RORγt” (Janssen Pharmaceutica NV, priority 2012, dated 2016)", "molecular_target": "human RORγt LBD (Homo sapiens (Human), UniProt P51449)", "sequence (P51449 258-518)": "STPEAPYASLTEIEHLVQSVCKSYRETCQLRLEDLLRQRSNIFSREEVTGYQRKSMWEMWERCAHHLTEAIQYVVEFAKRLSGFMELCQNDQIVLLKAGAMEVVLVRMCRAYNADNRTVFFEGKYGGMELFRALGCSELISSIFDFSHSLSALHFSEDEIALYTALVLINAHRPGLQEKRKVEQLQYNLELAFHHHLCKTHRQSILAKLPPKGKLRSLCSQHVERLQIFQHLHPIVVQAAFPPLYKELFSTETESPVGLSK", "assay": "RORγt reporter assay (GAL4-RORγt LBD luciferase in HEK293T cells)", "format": "cell-based", "conditions": "24 hours compound treatment", "description": "A reporter assay was used to test functional activity of RORγt modulatory compounds on transcriptional activation driven by the RORγt LBD. Cells used in the assay were co-transfected with two constructs. The first construct, pBIND-RORγt LBD, contained the wild type human RORγt LBD fused to the DNA binding domain of the GAL4 protein. The second construct, pGL4.31 (Promega Cat no. C935A), contained multiple GAL4 responsive DNA elements upstream of firefly luciferase. […] The mutant construct was called pBIND-RORγt-AF2.\nThe pBIND vector contains the GAL4 DNA Binding Domain (GAL4 DBD) and the renilla luciferase gene under control of the SV40 promoter. […]\nThe reporter assay was performed by transiently transfecting HEK293T cells with 5 ng of pBIND-RORγt LBD or pBIND-RORγt LBD-AF2 and 5 μg pGL4.31 (Promega Cat no. C935A) using Fugene 6 ([…] Cat no. E2691) at a 1:6 ratio of DNA: Fugene 6 in a T-75 flask in which cells were at least 80% confluent. […] Dual Glo Luciferase Reagent (50 μL/well) was then added and firefly luciferase luminescence was read on an Envision after a ten minute incubation. Finally, Stop and Glo reagent (50 μL/well) was added and renilla luciferase luminescence was read on an Envision after a ten minute incubation. To calculate the effect of compounds on RORγt activity, the ratio of firefly to renilla luciferase was determined and plotted against compound concentration. […]", "note": "Certain results were filed several times, with different values. This is not the full list of results. There may be further records. Values given together appear to be repeats (runs, samples, wells or individuals).", "data": [{"smiles": "COc1nc2ccc(C(O)(c3cnnn3C)c3cnc(C)n3C)cc2c(C#N)c1Cc1ccc(C(F)(F)F)cc1", "note": "(single isomer, unassigned) [Example 81C, 6-((1,2-Dimethyl-1H-imidazol-5-yl)(hydroxy)(1-methyl-1H-1,2,3-triazol-5-yl)methyl)-2-methoxy-3-(4-(trifluoromethyl)benzyl)quinoline-4-carbonitrile]", "values": [{"measurement": "IC50", "value": "5 nM and ~0.1 nM [one cell]"}]}]}
